According to the supplement of paper PMC4723716:
± gives the uncertainty stated by the source. In all, about 9,900 compounds were measured (“viability index relative to DMSO control”: median about 1, lowest 2% from about 0.85 on). Some of the results follow.

These molecules were tested on Plasmodium falciparum NF54 stage V gametocytes (assay: viability index relative to DMSO control (fraction); higher = less gametocyte killing). Settings: 2.5 µM, library set: Broad Institute DOS, incubation time: 72 h.
Method in brief: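 P. falciparum NF54 stage V gametocytes in serum-free screening medium (0.75% gametocytemia, 1.25% hematocrit, 10 µl) were incubated with compound at 2.5 µM in 1,536-well plates for 72 hr at 37°C under low oxygen. Then 3 µl of 2.5 µM MitoTracker Red CMXRos plus 0.13% saponin was added for one to two hours. One field per well was imaged, 20–70 µm2 red particles were counted, and the viability index was the count divided by the plate mean of DMSO wells.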

SMILES | viability index
C[C@H]1CN([C@@H](C)CO)C(=O)c2ccccc2-c2ccccc2CO[C@H]1CN(C)S(=O)(=O)c1ccc([N+](=O)[O-])cc1 | 0.969 ± 0.086
CN(C)C(=O)C[C@H]1CC[C@H]2[C@@H](COC[C@H](O)CN2C(=O)C2CCOCC2)O1 | 1.08 ± 0.043
C[C@@H]1CCCCO[C@H](CN(C)C(=O)c2ccncc2)[C@@H](C)CN([C@H](C)CO)C(=O)c2cc(NC(=O)CCC(F)(F)F)ccc2O1 | 1.11 ± 0.097
Cc1noc(C)c1NC(=O)Nc1ccc2c(c1)C(=O)N([C@H](C)CO)C[C@H](C)[C@@H](CN(C)S(=O)(=O)c1cccs1)OCCCC[C@@H](C)O2 | 1.04 ± 0.051
O=C(c1cnccn1)N1CC(=O)N2[C@H](CO)[C@@H](c3ccc(-c4cccc(F)c4)cc3)[C@H]2C1 | 0.966 ± 0.05
CO[C@H]1CN(C)C(=O)c2cc(NC(=O)c3ccc(F)cc3)ccc2OC[C@H](C)N(C(=O)CC2CC2)C[C@H]1C | 1.14 ± 0.066
C[C@@H]1CCCCO[C@H](CN(C)Cc2ccc(C(F)(F)F)cc2)[C@@H](C)CN([C@H](C)CO)C(=O)c2cc(NC(=O)Nc3cccc4ccccc34)ccc2O1 | 1.1 ± 0.099
COc1ccc(C#Cc2ccc3c(c2)[C@@H]2[C@@H](CCN2S(=O)(=O)c2ccccc2C)[C@H](CO)N3C)cc1 | 1.08 ± 0.013
CN1C(=O)c2cc(NC(=O)Cc3cccs3)ccc2OC[C@H]2O[C@H](CC(=O)NCC3CCCCC3)CC[C@H]21 | 1.191 ± 0.0061
C[C@H]1CN([C@@H](C)CO)C(=O)c2cc(-c3cccc(C#N)c3)cnc2O[C@H]1CN(C)C(=O)C1CCOCC1 | 0.988 ± 0.011
COc1ccc(S(=O)(=O)Nc2ccc3c(c2)C(=O)N([C@@H](C)CO)C[C@@H](C)[C@@H](CN(C)C(=O)Nc2c(C)noc2C)OCCCC[C@H](C)O3)cc1 | 1.05 ± 0.077
C[C@@H]1CCCCO[C@@H](CN(C)Cc2ccc3c(c2)OCO3)[C@H](C)CN([C@@H](C)CO)C(=O)c2cc(NS(=O)(=O)c3cn(C)cn3)ccc2O1 | 1.053 ± 0.0087
CCC(=O)N1[C@@H](C#N)[C@@H](c2ccccc2-c2ccccc2)[C@@H]1CO | 1.04 ± 0.058
CC(C)CC#Cc1ccc([C@H]2[C@@H](CO)N3C(=O)CN(C(=O)Nc4cc(F)ccc4F)C[C@@H]23)cc1 | 1.01 ± 0.016
N#C[C@H]1[C@H](c2ccccc2C2=CCCC2)[C@@H](CO)N1C(=O)Cc1ccncc1 | 1.03 ± 0.072
O=C(C1CCOCC1)N1CC(=O)N2[C@H](CO)[C@H](c3ccc(C#CC4CCCCC4)cc3)[C@H]2C1 | 1.09 ± 0.052
COc1ccc2c3c([C@@H](CO)N(CC4CC4)C[C@]33CCN(CC3)C(=O)c3cccc(F)c3)n(C)c2c1 | 1.02 ± 0.16
COCCNC(=O)C[C@H]1CC[C@@H]2[C@H](COC[C@H](O)CN2C(=O)c2cc(Cl)cc(Cl)c2)O1 | 0.981 ± 0.099
COCC(=O)N1C[C@@H](C)[C@@H](OC)CN(C)C(=O)c2ccc(NC(=O)Nc3cccc(F)c3)cc2OC[C@H]1C | 0.976 ± 0.11
O=C(C[C@H]1CC[C@@H]2[C@H](COC[C@@H](O)CN2Cc2cc(F)ccc2F)O1)NCc1ccc(Oc2ccccc2)cc1 | 1.1 ± 0.024
O=S(=O)(c1ccccc1)N1CC2(C1)[C@@H](c1ccccc1)[C@@H](CO)N2CC1CCOCC1 | 1.13 ± 0.065

SMILES | viability index
C[C@@H]1CN([C@@H](C)CO)C(=O)CCCn2nncc2CO[C@H]1CN(C)S(=O)(=O)c1ccc2c(c1)OCCCO2 | 0.9817 ± 0.0089
O=C(C[C@@H]1CC[C@@H]2[C@H](COC[C@@H](O)CN2S(=O)(=O)c2ccc(F)cc2)O1)NCCN1CCCCC1 | 1.06 ± 0.017
C[C@H]1CCCCO[C@H](CN(C)C(=O)CCCN(C)C)[C@@H](C)CN([C@@H](C)CO)C(=O)c2cc(NC(=O)Nc3ccc4c(c3)OCO4)ccc2O1 | 1.12 ± 0.12
Cc1noc(C)c1NC(=O)Nc1ccc2c(c1)CC(=O)N([C@H](C)CO)C[C@@H](C)[C@@H](CN(C)Cc1ccc(C(F)(F)F)cc1)O2 | 1.02 ± 0.012
O=C(C[C@H]1CC[C@H]2NC[C@H](O)COC[C@@H]2O1)Nc1nccs1 | 1.048 ± 0.0082
C[C@@H]1CN([C@H](C)CO)C(=O)c2cccc(NS(=O)(=O)c3ccc(F)cc3)c2O[C@@H]1CN(C)Cc1ccc(Cl)c(Cl)c1 | 0.94 ± 0.078
CN1C(=O)c2cc(NC(=O)c3cccc(F)c3)ccc2OC[C@H]2O[C@H](CC(=O)NCc3ccccc3Cl)CC[C@H]21 | 1.09 ± 0.091
O=C(c1ccc2c(c1)OCO2)N1C[C@@H]2N[C@H](C1)[C@@H]2c1ccc(-c2cncnc2)cc1 | 1.08 ± 0.035
COc1cccc(NC(=O)Nc2ccc3c(c2)C(=O)N(C)C[C@H](OC)[C@H](C)CN(CC2CC2)[C@H](C)CO3)c1 | 0.983 ± 0.021
C[C@@H]1CN([C@@H](C)CO)C(=O)c2c(c3ccccc3n2C)-c2ccccc2CO[C@H]1CN(C)S(=O)(=O)c1ccc([N+](=O)[O-])cc1 | 0.93 ± 0.086
COc1cccc(C(=O)Nc2ccc3c(c2)C(=O)N(C)[C@@H]2CC[C@@H](CC(=O)N[C@@H](C)c4ccccc4)O[C@H]2CO3)c1 | 1.1 ± 0.086
O=C(Nc1ccccc1)N1CC(=O)N2[C@H](CO)[C@H](c3ccc(C#CC4CCCCC4)cc3)[C@H]2C1 | 0.994 ± 0.049
COc1ccc2c3c([nH]c2c1)[C@@H](CO)N(Cc1cccnc1)C[C@]31CCN(CC1)C(=O)CN(C)C | 0.959 ± 0.081
Cc1noc(C)c1NC(=O)N(C)C[C@@H]1Oc2ccc(NC(=O)CCCN(C)C)cc2C(=O)N([C@@H](C)CO)C[C@H]1C | 0.914 ± 0.12
O=S(=O)(Cc1ccccc1)N1[C@H](CO)[C@@H](c2ccccc2)C12CN(CCC(F)(F)F)C2 | 1.14 ± 0.014
CCOC(=O)c1cc2c(c(-c3cccc(C#CCN(C)C)c3)n1)[C@@H](CCO)N(S(=O)C(C)(C)C)C2 (some centres not stated) | 0.9917 ± 0.0018
N#C[C@H]1[C@H](c2ccccc2-c2ccc(F)cc2)[C@@H](CO)N1C(=O)Cc1cccnc1 | 1.13 ± 0.083
O=C(C[C@H]1CC[C@@H]2[C@H](COC[C@H](O)CN2CC2CCOCC2)O1)NCC1CCCCC1 | 1.11 ± 0.067
COc1cccc(-c2ccc([C@@H]3[C@@H](C#N)N(C(=O)Cc4ccncc4)[C@@H]3CO)cc2)c1 | 0.927 ± 0.055
C[C@@H]1CN([C@H](C)CO)C(=O)c2cc(-c3cccc(C#N)c3)cnc2O[C@@H]1CN(C)C(=O)C1CCOCC1 | 1.04 ± 0.017
O=C(C[C@H]1CC[C@@H]2[C@H](COC[C@H](O)CN2Cc2cc(F)ccc2F)O1)NCc1ccc(Oc2ccccc2)cc1 | 1.02 ± 0.028
